# Results as given in the supplement of paper PMC11876631.
# ± gives the standard deviation of the averaged measurements. Laboratory Escherichia coli strains with one amino-acid change in an essential protein, pooled on minimal glucose agar with carbenicillin or gentamicin at twice the control MIC (plus kanamycin and chloramphenicol for the plasmids), 48 h. Fold change of barcode share against drug-free plates; higher = less susceptible. Active = above 20 in both replicates (the paper's putatively resistant). '<' = one read or none on drug, '>' = one read or none on a drug-free plate. Shares are relative, so most strains fall below 1 when a few take over. Listed are strains with at least 15 reads on both drug-free plates, and hits; most hits rest on fewer reference reads. Replicate rank correlation about 0.5. Edits are read from barcodes.
# B1: cysG I441A (protein)
# chain: MDHLPIFCQLRDRDCLIVGGGDVAERKARLLLDAGARLTVNALAFIPQFTAWADAGMLTLVEGPFDESLLDTCWLAIAATDDDALNQRVSEAAEARRIFCNVVDAPKAASFIMPSIIDRSPLMVAVSSGGTSPVLARLLREKLESLLPLHLGQVAKYAGQLRGRVKQQFATMGERRRFWEKLFVNDRLAQSLANNDQKAITETTEQLINEPLDHRGEVVLVGAGPGDAGLLTLKGLQQIQQADVVVYDRLVSDDIMNLVRRDADRVFVGKRAGYHCVPQEEINQILLREAQKGKRVVRLKGGDPFIFGRGGEELETLCNAGIPFSVVPGITAASGCSAYSGIPLTHRDYAQSVRLITGHLKTGGELDWENLAAEKQTLVFYMGLNQAATIQQKLIEHGMPGEMPVAIVENGTAVTQRVIDGTLTQLGELAQQMNSPSLIIAGRVVGLRDKLNWFSNH
# B2: cysE L120Q (protein)
# chain: MSCEELEIVWNNIKAEARTLADCEPMLASFYHATLLKHENLGSALSYMLANKLSSPIMPAIAIREVVEEAYAADPEMIASAACDIQAVRTRDPAVDKYSTPLLYLKGFHALQAYRIGHWQWNQGRRALAIFLQNQVSVTFQVDIHPAAKIGRGIMLDHATGIVVGETAVIENDVSILQSVTLGGTGKSGGDRHPKIREGVMIGAGAKILGNIEVGRGAKIGAGSVVLQPVPPHTTAAGVPARIVGKPDSDKPSMDMDQHFNGINHTFEYGDGI
# B3: cysE V88W (protein)
# chain: MSCEELEIVWNNIKAEARTLADCEPMLASFYHATLLKHENLGSALSYMLANKLSSPIMPAIAIREVVEEAYAADPEMIASAACDIQAWRTRDPAVDKYSTPLLYLKGFHALQAYRIGHWLWNQGRRALAIFLQNQVSVTFQVDIHPAAKIGRGIMLDHATGIVVGETAVIENDVSILQSVTLGGTGKSGGDRHPKIREGVMIGAGAKILGNIEVGRGAKIGAGSVVLQPVPPHTTAAGVPARIVGKPDSDKPSMDMDQHFNGINHTFEYGDGI
# B4: cysE V88A (protein)
# chain: MSCEELEIVWNNIKAEARTLADCEPMLASFYHATLLKHENLGSALSYMLANKLSSPIMPAIAIREVVEEAYAADPEMIASAACDIQAARTRDPAVDKYSTPLLYLKGFHALQAYRIGHWLWNQGRRALAIFLQNQVSVTFQVDIHPAAKIGRGIMLDHATGIVVGETAVIENDVSILQSVTLGGTGKSGGDRHPKIREGVMIGAGAKILGNIEVGRGAKIGAGSVVLQPVPPHTTAAGVPARIVGKPDSDKPSMDMDQHFNGINHTFEYGDGI
# B5: cysE I116A (protein)
# chain: MSCEELEIVWNNIKAEARTLADCEPMLASFYHATLLKHENLGSALSYMLANKLSSPIMPAIAIREVVEEAYAADPEMIASAACDIQAVRTRDPAVDKYSTPLLYLKGFHALQAYRAGHWLWNQGRRALAIFLQNQVSVTFQVDIHPAAKIGRGIMLDHATGIVVGETAVIENDVSILQSVTLGGTGKSGGDRHPKIREGVMIGAGAKILGNIEVGRGAKIGAGSVVLQPVPPHTTAAGVPARIVGKPDSDKPSMDMDQHFNGINHTFEYGDGI
# B6: cysE V88Q (protein)
# chain: MSCEELEIVWNNIKAEARTLADCEPMLASFYHATLLKHENLGSALSYMLANKLSSPIMPAIAIREVVEEAYAADPEMIASAACDIQAQRTRDPAVDKYSTPLLYLKGFHALQAYRIGHWLWNQGRRALAIFLQNQVSVTFQVDIHPAAKIGRGIMLDHATGIVVGETAVIENDVSILQSVTLGGTGKSGGDRHPKIREGVMIGAGAKILGNIEVGRGAKIGAGSVVLQPVPPHTTAAGVPARIVGKPDSDKPSMDMDQHFNGINHTFEYGDGI
# B7: cysE L120D (protein)
# chain: MSCEELEIVWNNIKAEARTLADCEPMLASFYHATLLKHENLGSALSYMLANKLSSPIMPAIAIREVVEEAYAADPEMIASAACDIQAVRTRDPAVDKYSTPLLYLKGFHALQAYRIGHWDWNQGRRALAIFLQNQVSVTFQVDIHPAAKIGRGIMLDHATGIVVGETAVIENDVSILQSVTLGGTGKSGGDRHPKIREGVMIGAGAKILGNIEVGRGAKIGAGSVVLQPVPPHTTAAGVPARIVGKPDSDKPSMDMDQHFNGINHTFEYGDGI
# B8: cysE V88D (protein)
# chain: MSCEELEIVWNNIKAEARTLADCEPMLASFYHATLLKHENLGSALSYMLANKLSSPIMPAIAIREVVEEAYAADPEMIASAACDIQADRTRDPAVDKYSTPLLYLKGFHALQAYRIGHWLWNQGRRALAIFLQNQVSVTFQVDIHPAAKIGRGIMLDHATGIVVGETAVIENDVSILQSVTLGGTGKSGGDRHPKIREGVMIGAGAKILGNIEVGRGAKIGAGSVVLQPVPPHTTAAGVPARIVGKPDSDKPSMDMDQHFNGINHTFEYGDGI
# Biological target: Escherichia coli (laboratory strain)
# Assay: barcode share on antibiotic plates over drug-free plates; higher = less susceptible
# Conditions: antibiotic: carbenicillin; 2× MIC (3.1 µg/mL)
# Experimental: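 A pool of E. coli strains, each edited to carry one amino-acid change in an essential protein, was grown for 48 h on minimal glucose agar with or without antibiotic; strain barcodes were sequenced; mean of two replicates.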
row,Protein,fold change of barcode share
1,B1,0.68 ± 0.22
2,B2,0.13 ± 0.085
3,B3,0.216 ± 0.17
4,B4,0.487 ± 0.41
5,B5,0.297 ± 0.045
6,B6,0.424 ± 0.085
7,B7,0.308 ± 0.26
8,B8,0.245 ± 0.033

# Same assay, conditions: antibiotic: gentamicin; 2× MIC (MIC 0.45 µg/mL)
row,Protein,fold change of barcode share
1,B1,< 0.00449
2,B3,0.0194 ± 0.01
3,B4,< 0.00601
4,B6,0.0112 ± 0.0044
5,B7,0.0261 ± 0.027
6,B8,< 0.0105
